One may read the % Inhibition as the relative decrease from the control value, in per cent.

SMILES strings stand for the structures. About 540 (0.36%) of roughly 150,000 compounds showed an effect of 50% or more. This is one part of the list.

The test system of this experiment is Plasmodium falciparum. Nature of the experiment: Primary screen in NF54 nanoGlo assay, in single point, at 2uM, 72h; a lower Z score goes with more inhibition. The class given is functional, Erythrocyte. The following applies: timepoint 72 hour.
For `Cc1cc(NC(=O)c2sc(NCc3ccccc3)nc2C)ccc1F`, the “% Inhibition” value was determined as 8% and the Z score is given as -1.1.
Consider `COc1ccc(Cn2c(C)cnc2[C@@H]2CCCN2C(=O)Cc2c(C)noc2C)cc1`, for which the “% Inhibition” value is reported as -11% and the Z score was 1.5.
For `N#CC1CCN(c2cc([C@H]3CCOC3)nc(N3CC(O)C3)n2)CC1`, in that order: -4% and 0.71.
For `COc1ccc2ncc(C(=O)NC3(c4ccccc4C)CCC3)n2n1`, in that order: 7% and -0.8.
For `CCc1ccccc1NC(=O)CN1CCN(Cn2ncsc2=S)CC1`, in that order: 0% and -0.04.
On to `CC1CCC(NC(=O)Nc2ccc(F)c(C3CC3)c2)CS1(=O)=O` (stereo not given), for which the “% Inhibition” value is recorded as -5% and the Z score worked out at 0.65.
For `CC1CCC(C(N)=O)CN1C(=O)c1cccc2[nH]ncc12` (stereo not given) the same measures were -15% and 1.36.
For `CC(C)CC(=O)Nc1cc(F)cc(F)c1` the same measures were 4% and -0.71.
Regarding `O=C(C1C2CCCCC21)N1CCCCCC1c1noc(-c2ccccc2)n1` (stereo not given), the “% Inhibition” value was -20% and the Z score was 3.85.
For `Cc1csc(C(=O)N2CCC[C@H](Oc3cccnn3)C2)c1` the same measures were -7% and 0.82.
For `Cc1c(C(=O)Nc2cc(F)ccc2OC(F)F)cnn1-c1ccncc1` the same measures were 4% and -0.37.
For `Cc1ncc2n1C[C@@H](C(=O)NCc1nc3c(s1)CCCC3)CC2`, in that order: 0% and 0.05.
As to `CCc1nc(C)c(-c2c(-c3ccccc3)ncn2[C@@H](C)c2ncn[nH]2)[nH]1`, the “% Inhibition” value is given as 0% and the Z score is listed as -0.06.
`Cn1cc(Br)c(C(=O)N2CCn3nccc32)cc1=O`: the “% Inhibition” value is listed as -18% and the Z score came to 2.92.
On to `COc1ccc(Cl)cc1NC(=O)N1CCC[C@H](Oc2ccncc2Cl)C1`, for which the “% Inhibition” value was 20% and the Z score is listed as -2.77.
For `O=C(CN1C(=O)c2ccccc2Oc2ncccc21)NCCc1ccccc1`, in that order: 0% and -0.03.
Turning to `Cc1ccccc1CS(=O)(=O)N(C)C1CC(O)C1` (stereo not given), the “% Inhibition” value was -12% and the Z score was 1.57.
In the case of `CC(=O)Oc1c(-c2ccc(NC(=O)c3ccc(F)cc3)cc2)c(-c2cccc(F)c2)nn1-c1ccc(C)cc1`, the “% Inhibition” value is on record as -10% and the Z score is given as 1.4.
For `C[C@@H]1NC(=O)N(c2ccccc2NC(=O)c2cc(Cl)cn2C)C1=O` the same measures were -10% and 1.67.
For `COc1ccc(-c2nc(CN3CC[C@H](NC(C)=O)C3)c(C)o2)c2ccccc12`, in that order: -21% and 2.72.
For `CC1CCCCC1NC(=O)c1cccc(N(C)C)c1` (stereo not given) the same measures were -8% and 1.21.
With `CC(C)(C)OC(=O)N1CCC[C@H]1C(=O)Nc1cccc2ccccc12`, the “% Inhibition” value is 1% and the Z score is given as -0.12.
For `c1ccc(-c2ccc(-c3n[nH]cc3CN3CCC(N4CCOCC4)CC3)cc2)cc1` the same measures were 7% and -0.84.
For `CCn1nnc2cc(-c3nc(C4CC4)no3)ccc21` the same measures were -6% and 0.8.
For `O=C(c1ccc(-c2ccsc2)cc1)N1CCCNCC1` the same measures were 1% and -0.18.
`Cc1ccc2c(Nc3ccc(C(C)C)cc3)c(C(=O)N3CCCC3)cnc2n1`: the “% Inhibition” value is recorded as -6% and the Z score stood at 1.15.
For `CCOc1ccc(NC(=O)c2ccoc2COc2ccccc2)cc1`, in that order: 7% and -0.9.
For `COCCN(C)Cc1nc(-c2ccc(F)c(F)c2)nn1CCO` the same measures were -6% and 1.19.
For `O=C(c1cn2c(n1)CCCC2)N1CCN(c2cccc(Cl)c2)CC1` the same measures were -4% and 0.71.
Regarding `COc1ccc(C(C)C)cc1CN1CCN(C(C)=O)[C@H]2CS(=O)(=O)C[C@H]21`, the “% Inhibition” value came to 5% and the Z score is given as -0.64.
For `OCCOc1cncc(N2CCc3ccccc3CC2)n1`, the “% Inhibition” value was -8% and the Z score was 0.78.
For `O=C(N[C@@H]1[C@H]2CCO[C@H]2[C@H]1Cc1ccccc1)c1n[nH]c2c1CCCC2`, in that order: -1% and 0.21.
For `Cc1ccccc1NC(=O)N1C[C@H]2CC[C@@H](C1)N(Cc1c(C)noc1C)C2=O`, the “% Inhibition” value is -10% and the Z score came out at 1.22.
For `O=C(Cn1c2c(c(=O)n(C3CCCCC3)c1=O)CCC2)Nc1cccc(F)c1`, in that order: -4% and 0.69.
For `Cc1[nH]c2ccccc2c1C1CCN(C(=O)CN2CCCC2=O)CC1`, in that order: -7% and 0.94.
On to `O=C(c1ccc2c(c1)OCCO2)N1C[C@@H](CO)C[C@@H](CN2CCOCC2)C1`, for which the “% Inhibition” value is recorded as -11% and the Z score was 1.08.
For `CCn1cnnc1C[C@H]1CCN(S(=O)(=O)Cc2ccccc2F)C1`, in that order: 6% and -1.06.
`COc1cc(CN2CCCN(c3ccc(C)cc3NC(=O)OCc3ccccc3)C2=O)cc(OC)c1`: the “% Inhibition” value is -5% and the Z score came to 0.79.
`O=C(Cc1ccc(Cl)c(Cl)c1)N(Cc1ccco1)[C@H]1CCS(=O)(=O)C1`: the “% Inhibition” value is recorded as -4% and the Z score amounted to 0.55.
For `CCc1ocnc1C(=O)N1CCOC[C@@H]1CCOC` the same measures were 0% and -0.03.
For `O=c1ccc(C(F)(F)F)nn1Cc1nnnn1-c1ccccc1` the same measures were 2% and -0.22.
For `FC(F)(F)c1ccccc1CCn1cnnc1`, the “% Inhibition” value is on record as -12% and the Z score stood at 1.99.
For `CN(Cc1ccc2c(ccn2C)c1)C1CCS(=O)(=O)CC1` the same measures were -9% and 1.01.
For `Cc1[nH]nc(CCC(=O)N[C@@H](C)c2nc(-c3ccncc3)no2)c1C`, in that order: 5% and -0.45.
For `Cc1nc(N)nc(C)c1C(=O)N1CC[C@@]12CCOC2`, in that order: 5% and -1.07.
On to `O=C([C@@H]1COc2ccccc2O1)N1CCOc2ccc(N3CCCC3)cc2C1`, for which the “% Inhibition” value was -4% and the Z score worked out at 0.81.
For `O[C@H]1CN(c2ncnc3ccsc23)C[C@@H]1N1CCN(c2ccccn2)CC1`, the “% Inhibition” value is reported as -2% and the Z score came to 0.16.
For `O=C(COc1cc(C(F)F)nc2ccc(Cl)cc12)NC1CC1`, in that order: -16% and 1.59.
For `CCc1ccc(-c2cc(C)no2)cc1S(=O)(=O)N1CC[C@H](c2cc(OC)ccc2OC)C1`, in that order: -2% and 0.33.
For `Cc1cncc(C(=O)N[C@@H]2CN(c3ccncn3)C[C@H]2CO)c1`, in that order: -21% and 3.05.
Consider `CCN1C[C@]2(CCCN(C(=O)c3ccn(C(F)F)n3)C2)CCC1=O`, for which the “% Inhibition” value was -10% and the Z score worked out at 1.28.
For `O=C(N[C@H]1Cc2cccc(O)c2C1)c1cccc2c1CCOC2`, in that order: -2% and 0.32.
For `CCCN(c1cc(C#N)ncn1)C1CC1`, in that order: -14% and 1.93.
For `Cc1nc(N2CCN(C(=O)COc3ccc(Cl)cc3Cl)CC2)cc(C(F)(F)F)n1`, in that order: -17% and 2.16.
As to `C#CCCC1(CCC(=O)N2CCOCC2C2CCCN2C)N=N1` (stereo not given), the “% Inhibition” value was -1% and the Z score is 0.21.
For `N[C@@H]1CCN(C(=O)CCCOc2cccc(Cl)c2Cl)C1` the same measures were -9% and 1.71.
For `CC(C)(C(=O)Nc1cc(F)c(C#N)cc1F)C(F)F` the same measures were 1% and -0.16.
For `N#CCC(=O)N1CCOCC(F)(F)C1`, in that order: 0% and -0.02.
In the case of `CCCc1cc(C(=O)N(CCO)Cc2nccn2C)no1`, the “% Inhibition” value turned out to be 6% and the Z score was -1.13.
For `CC(C)Cc1cc(C(=O)N2C[C@H]3CC=CC[C@H]3C2)on1`, in that order: -5% and 0.98.
For `C[C@@H](CCc1ccccc1)NS(=O)(=O)CC1CCCCC1`, the “% Inhibition” value is -2% and the Z score is reported as 0.21.
For `CCc1nsc(N2CCC(c3ncccn3)CC2)n1`, in that order: -3% and 0.34.
For `CC(Nc1ccc(C#N)nc1)C1CCCOC1` (stereo not given) the same measures were 1% and -0.15.
With `Cn1nc(CN2CCc3[nH]cnc3[C@@H]2C2CC2)c2c(Cl)cccc21`, the “% Inhibition” value is -4% and the Z score amounted to 0.57.
For the compound `O=C(Cc1ccn(CC(F)(F)F)n1)N1CC[C@H](O)C12CCCC2`, the “% Inhibition” value was 0% and the Z score is -0.05.
For `CCCc1ccc(-c2cn(CCN3CCNC3=O)nn2)o1` the same measures were -12% and 1.74.
For `CN1CCC([C@H]2CCN(S(=O)(=O)c3cc(F)cc(F)c3)C2)CC1`, the “% Inhibition” value is recorded as -9% and the Z score was determined as 1.3.
For `Cc1sc2cc(C(=O)NCc3ccncc3)[nH]c2c1CN1CCCCC1`, in that order: 1% and -0.24.
For `CN(CCOCC1CC1)C(=O)Nc1nc2c(s1)CCCC2`, in that order: -7% and 0.88.
For `C[C@@H](CN1CCCCC1)NS(=O)(=O)c1cccnc1` the same measures were 6% and -0.92.
For the compound `O=C(CCc1c(-c2ccc(Cl)cc2)nc2ccc(-c3ccccc3Cl)cn12)NCc1ccccc1`, the “% Inhibition” value was -1% and the Z score was found to be 0.27.
For `O=C(O)CN(C1CCC1)S(=O)(=O)c1ccc(C(F)(F)F)s1` the same measures were -8% and 0.79.
For `O=C(Nc1cccc(C(=O)N2CCc3ccc(Cl)cc32)c1)c1ccco1`, in that order: -7% and 0.66.
With `COc1cc(C)c(CN2CCN(C)[C@]3(CCC(=O)N(C)CC3)C2)cc1C`, the “% Inhibition” value is -7% and the Z score is recorded as 0.61.
For `Cc1nnc2n1CC[C@@H](N(C)Cc1cc(F)ccc1F)CC2`, in that order: -6% and 0.92.
As for `O=C1C[C@H](N2CCC(c3nc4ccccc4s3)CC2)C(=O)N1`, the “% Inhibition” value stood at 0% and the Z score is reported as 0.03.
For `CC[C@H](NC(=O)N1CCN(Cc2ccc3c(c2)OCO3)CC1)c1nc(C)no1`, in that order: -6% and 1.13.
For `CC(=O)N1CCN(Cc2c(-c3ccc(Cl)cc3)nc3ccc(-c4cccc(C)c4)cn23)CC1`, in that order: -14% and 2.1.
Turning to `Fc1ccc(N2CCCCC2)c(NCc2cc[nH]n2)c1`, the “% Inhibition” value was -4% and the Z score is 0.62.
For `CCN(CCOc1ccc([C@H]2CC[C@H](N(C)C(=O)c3ccc(Cl)cc3)CC2)cc1)C1CC1` the same measures were -11% and 1.07.
Turning to `Clc1ccc2nc(N3CCC[C@H](c4nccn4CC4CC4)C3)ccc2c1`, the “% Inhibition” value is given as -16% and the Z score is recorded as 1.6.
For `COCCCNC(=O)Nc1ncnn1C`, in that order: -8% and 0.89.
Consider `CC(C)c1scnc1C(=O)Nc1ccc(S(C)(=O)=O)cc1`, for which the “% Inhibition” value is recorded as 0% and the Z score is -0.03.
For `CC1CC(C)CN(C(=O)c2ccc(Cl)c(S(=O)(=O)N3CCCCCC3)c2)C1` (stereo not given), in that order: 5% and -0.84.
As for `CC(=O)Nc1cc(Cl)c(NC(=O)COC(C)C)c(Cl)c1`, the “% Inhibition” value is -15% and the Z score stood at 1.58.

The record behind these values is ChEMBL document CHEMBL4888484, “Replenishing the malaria drug discovery pipeline: Screening and hit evaluation of the MMV Hit Generation Library 1 (HGL1) against asexual blood stage Plasmodium falciparum ,using a nano luciferase reporter read-out” (2022).
